Experimental data: the supplement of paper PMC8007513
Counter-ions that a name gives are not always drawn. ± gives the standard error. Screen size: about 1,300 compounds; about 75 (6%) showed an effect of 50% or more. The list shows a part of the results.

System: Trichoderma virens ATCC 9645
Assay: growth yield (OD600) relative to untreated control; higher = less growth inhibition
Settings: compound concentration: 100 uM
Summary of the method: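 Trichoderma virens ATCC 9645 spores at 15,000 spores ml^−1 in potato dextrose broth were exposed in 96-well plates to library compounds at 100 μM final, with or without a biocide at 200 ng ml^−1. After growth at 30 °C, OD600 was read at 40 h and 72 h. Values are growth relative to the control without either agent, averaged over duplicate screens.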

Row | SMILES | growth yield (40 h) | growth yield (72 h)
1 | CCOC(=O)C1=C[C@]2(CC)CCCN3CCc4c(n1c1ccccc41)[C@@H]32 [Vinpocetine] | 99.8 ± 1.9% | 99.5 ± 1.6%
2 | OCCOCCN1CCN(C(c2ccccc2)c2ccc(Cl)cc2)CC1 (stereo unspecified) [Hydroxyzine dihydrochloride] | 97.4 ± 1.1% | 102 ± 2.1%
3 | C=CC1=C(C(=O)O)N2C(=O)[C@@H](NC(=O)/C(=N\OCC(=O)O)c3csc(N)n3)[C@H]2SC1 [Cefixime] | 103 ± 8.4% | 104 ± 7.9%
4 | Cc1cc(-n2c(=O)[nH]c(=O)n(C)c2=O)ccc1Oc1ccc(SC(F)(F)F)cc1 [Toltrazuril] | 112 ± 2.2% | 104 ± 2.5%
5 | Cc1ccccc1N1C(=O)c2cc(S(N)(=O)=O)c(Cl)cc2NC1C (stereo unspecified) [Metolazone] | 99.91 ± 0.16% | 100 ± 1.5%
6 | COc1ccc2[nH]c([S+]([O-])Cc3ncc(C)c(OC)c3C)nc2c1 (stereo unspecified) [Omeprazole] | 89.1 ± 4.6% | 94.7 ± 5.1%
7 | CC(=O)Nc1ccc(O)cc1 [Acetaminophen] | 101 ± 6.3% | 98.7 ± 2.6%
8 | CO/N=C(\C(=O)N[C@@H]1C(=O)N2C(C(=O)O)=C(C[N+]3(C)CCCC3)CS[C@H]12)c1csc(N)n1 [Cefepime hydrochloride] | 101 ± 4% | 92.3 ± 8%
9 | CCOC(=O)[C@H](CCc1ccccc1)N[C@@H](C)C(=O)N1CCC[C@H]1C(=O)O [Enalapril maleate] | 98.5 ± 1.3% | 98.17 ± 0.63%
10 | CC1=C(CC(=O)O)c2cc(F)ccc2/C1=C\c1ccc([S+](C)[O-])cc1 (stereo unspecified) [Sulindac] | 90.1 ± 1.1% | 86.31 ± 0.73%
11 | CC(Oc1c(Cl)cccc1Cl)C1=NCCN1 (stereo unspecified) [Lofexidine] | 104 ± 1.3% | 105 ± 1.1%
12 | C[C@]12CC[C@@H]3c4ccc(O)cc4CC[C@H]3[C@@H]1C[C@@H](O)[C@@H]2O [Estriol] | 103.4 ± 0.48% | 99.63 ± 0.42%
13 | CN(C)CCCO[C@@H]1[C@H]2OC(C)(C)O[C@H]2O[C@@H]1[C@H](O)CO [Amiprilose hydrochloride] | 100.5 ± 0.79% | 101.6 ± 0.73%
14 | Cc1noc(NS(=O)(=O)c2ccc(N)cc2)c1C [Sulfisoxazole] | 87.4% | 96.2 ± 1.8%
15 | CCc1cccc2c3c([nH]c12)C(CC)(CC(=O)O)OCC3 (stereo unspecified) [Etodolac] | 94.8 ± 2.4% | 89.8 ± 2.7%
16 | CC[N+](CC)(CC)CCC(O)(c1ccccc1)C1CCCCC1 (stereo unspecified) [Tridihexethyl chloride] | 103 ± 6.3% | 101 ± 4.5%
17 | CN(C)[C@@H]1C(O)=C(C(N)=O)C(=O)[C@@]2(O)C(O)=C3C(=O)c4c(O)ccc(Cl)c4[C@@H](O)[C@H]3C[C@@H]12 [Demeclocycline hydrochloride] | 82.6 ± 3.2% | 85.1 ± 5.6%
18 | O=C1c2ccccc2S(=O)(=O)N1CCCCN1CCN(c2ncccn2)CC1 [Ipsapirone] | 108 ± 3.6% | 108 ± 4%
19 | Cn1c([N+](=O)[O-])cnc1COC(N)=O [Ronidazole] | 101 ± 1.1% | 98.06 ± 0.94%
20 | COc1ccc(C(=O)NCc2ccc(OCCN(C)C)cc2)cc1OC [Itopride] | 105 ± 5.7% | 105 ± 3.7%
21 | N[C@@H](C(=O)N[C@@H]1C(=O)N2C(C(=O)O)=C(Cl)CS[C@H]12)c1ccccc1 [Cefaclor hydrate] | 96.1 ± 4.6% | 96.9 ± 4.2%
22 | CC(Oc1ccccc1)C(=O)N[C@@H]1C(=O)N2[C@@H]1SC(C)(C)[C@@H]2C(=O)O (stereo partly specified) [Phenethicillin potassium salt] | 101 ± 4.1% | 95.1 ± 4.1%

Row | SMILES | growth yield (40 h) | growth yield (72 h)
23 | CN(C)CCOC(=O)COc1ccc(Cl)cc1 [Meclofenoxate hydrochloride] | 95.1 ± 2.1% | 92.1 ± 3.6%
24 | Brc1c(NC2=NCCN2)ccc2nccnc12 [Brimonidine L-Tartrate] | 92.6 ± 2.4% | 90.9 ± 1.4%
25 | CCCc1nc(C(C)(C)O)c(C(=O)O)n1Cc1ccc(-c2ccccc2-c2nnn[nH]2)cc1 [Olmesartan] | 100 ± 3.2% | 99.8 ± 2.9%
26 | N=C(N)N/N=C/c1c(Cl)cccc1Cl [Guanabenz acetate] | 91.5 ± 1.9% | 90.7 ± 3.2%
27 | OC(CCN1CCCCC1)(c1ccccc1)C1CCCCC1 (stereo unspecified) [Trihexyphenidyl-D,L Hydrochloride] | 92.1 ± 3.5% | 90.51 ± 0.1%
28 | CN(CCOc1ccc(CC2SC(=O)NC2=O)cc1)c1ccccn1 (stereo unspecified) [Rosiglitazone Hydrochloride] | 99.6 ± 8.1% | 88.4 ± 9.5%
29 | CCC(=O)OCC(=O)[C@@]1(OC(=O)CC)[C@H](C)C[C@H]2[C@H]3[C@H]([C@@H](O)C[C@@]21C)[C@@]1(C)C=CC(=O)C=C1C[C@H]3Cl [Alclometasone dipropionate] | 101 ± 4% | 97.7 ± 1.7%
30 | Nc1cc(-c2ccncc2)c[nH]c1=O [Amrinone] | 87 ± 1.6% | 83.1%
31 | COc1ccc(C[C@@H]2c3cc(OC)c(OC)cc3CC[N@+]2(C)CCC(=O)OCCCCCOC(=O)CC[N@@+]2(C)CCc3cc(OC)c(OC)cc3[C@H]2Cc2ccc(OC)c(OC)c2)cc1OC [Cisatracurium besylate] | 95 ± 1.3% | 94 ± 3.4%
32 | CC(N)C12CC3CC(CC(C3)C1)C2 (stereo unspecified) [Rimantadine Hydrochloride] | 102 ± 1.6% | 103%
33 | COC(=O)Nc1nc2cc(C(=O)c3ccc(F)cc3)ccc2[nH]1 [Flubendazol] | 102 ± 2.7% | 102.6 ± 0.63%
34 | O=C(O[C@@H]1C[C@@H]2C[C@H]3C[C@H](C1)N2CC3=O)c1c[nH]c2ccccc12 [Dolasetron mesilate] | 106 ± 3.3% | 104 ± 1.9%
35 | CC(C)(C)NC(=O)[C@@H]1CN(Cc2cccnc2)CCN1C[C@@H](O)C[C@@H](Cc1ccccc1)C(=O)N[C@H]1c2ccccc2C[C@H]1O [Indinavir sulfate] | 94.4 ± 2.5% | 95.5 ± 2.6%
36 | CC(C)(C)NCC(O)c1ccc(O)c(CO)c1 (stereo unspecified) [Salbutamol] | 105 ± 1.6% | 104 ± 2.5%
37 | Cc1c(OCC(F)(F)F)ccnc1C[S+]([O-])c1nc2ccccc2[nH]1 (stereo unspecified) [Lansoprazole] | 78 ± 2.4% | 87 ± 1.7%
38 | Cn1c(=O)c2c(ncn2C)n(C)c1=O [Caffeine] | 104 ± 1.8% | 99.9 ± 1.1%
39 | CN(C)CCCC1(c2ccc(F)cc2)OCc2cc(C#N)ccc21 (stereo unspecified) [Citalopram Hydrobromide] | 90.54 ± 0.64% | 93.1 ± 2.1%
40 | CCCC(CCC)C(=O)O [Valproic acid] | 88.63 ± 0.32% | 87.9 ± 1.7%
41 | Cc1onc(-c2ccccc2)c1C(=O)N[C@@H]1C(=O)N2[C@@H]1SC(C)(C)[C@@H]2C(=O)O [Oxacillin sodium] | 111 ± 1.6% | 105 ± 1.4%
42 | O=C(O)CNC(=O)C(CS)Cc1ccccc1 (stereo unspecified) [Thiorphan] | 97.8 ± 1.9% | 98.06 ± 0.32%
43 | CN(C)CCC(c1ccc(Cl)cc1)c1ccccn1 (stereo unspecified) [Chlorpheniramine maleate] | 101 ± 1.8% | 103 ± 2.7%
